Source: paper PMC4336329 (PLoS ONE, 2015)
In all, about 310,000 compounds went through this assay and about 14,000 (4.5%) showed an effect of 50% or more. Effects have a minus sign here. This is one part of the list.

molecular target: human ether-à-go-go-related gene (hERG) potassium channel (human, UniProt Q12809); assay: primary screen, population patch clamp on CHO cells stably expressing hERG
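Further: peak tail current of the secondary pulse compared with the same well before compound.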

human ether-à-go-go-related gene (hERG) potassium channel, sequence (Q12809 whole entry, looked up): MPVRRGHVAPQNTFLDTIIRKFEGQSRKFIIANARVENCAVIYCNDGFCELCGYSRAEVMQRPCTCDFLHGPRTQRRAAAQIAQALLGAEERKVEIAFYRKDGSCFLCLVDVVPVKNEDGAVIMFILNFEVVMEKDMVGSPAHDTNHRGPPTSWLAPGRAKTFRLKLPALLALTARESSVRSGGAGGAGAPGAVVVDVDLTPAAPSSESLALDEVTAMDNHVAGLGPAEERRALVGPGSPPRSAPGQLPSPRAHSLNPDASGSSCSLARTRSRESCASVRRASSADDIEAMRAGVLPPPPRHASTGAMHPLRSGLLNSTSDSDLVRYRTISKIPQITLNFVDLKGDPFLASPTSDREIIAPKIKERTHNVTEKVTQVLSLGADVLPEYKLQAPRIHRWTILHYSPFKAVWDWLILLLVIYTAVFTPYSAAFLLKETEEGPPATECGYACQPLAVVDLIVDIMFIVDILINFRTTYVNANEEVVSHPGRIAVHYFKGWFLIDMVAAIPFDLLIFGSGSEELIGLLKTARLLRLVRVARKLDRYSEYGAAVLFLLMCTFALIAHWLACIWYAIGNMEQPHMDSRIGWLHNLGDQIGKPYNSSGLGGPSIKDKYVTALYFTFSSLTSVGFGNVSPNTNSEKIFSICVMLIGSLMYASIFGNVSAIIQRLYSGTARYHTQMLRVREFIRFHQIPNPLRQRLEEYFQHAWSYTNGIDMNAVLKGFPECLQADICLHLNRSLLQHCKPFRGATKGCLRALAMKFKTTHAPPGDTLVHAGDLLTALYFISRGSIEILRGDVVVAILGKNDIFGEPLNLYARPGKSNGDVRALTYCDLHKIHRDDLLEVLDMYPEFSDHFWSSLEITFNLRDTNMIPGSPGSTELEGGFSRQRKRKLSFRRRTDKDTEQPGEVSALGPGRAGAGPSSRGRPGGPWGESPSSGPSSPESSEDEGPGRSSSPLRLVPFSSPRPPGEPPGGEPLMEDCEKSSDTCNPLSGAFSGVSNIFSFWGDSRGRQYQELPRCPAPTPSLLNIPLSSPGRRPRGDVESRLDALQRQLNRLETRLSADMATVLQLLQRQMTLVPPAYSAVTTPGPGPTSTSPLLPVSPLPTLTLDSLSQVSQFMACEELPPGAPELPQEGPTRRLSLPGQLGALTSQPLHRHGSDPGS

SMILES | hERG current change (%, negative = inhibition) at 10uM [%]
COc1ccc(OC)c(NC(=O)CCOc2cccc(C)c2)c1 | -12.9
CCOc1ccc2[nH]c(=O)c(CN(CC3COCCO3)C(=O)C3CC3)cc2c1 (stereo not drawn) | 11.3
CC(=O)Oc1cccc(NC(=O)c2cccc(C(=O)Nc3cccc(OC(C)=O)c3)c2)c1 | 12.6
COc1ccc2[nH]c(C)c(CCNC(=S)Nc3cccc(C)c3)c2c1 | -1.02
CCCCCCn1c(CN2CCN(Cc3ccccc3)CC2)nc2c1c(=O)n(C)c(=O)n2C | -71.8
COc1ccc(CN(C)C(=O)CNC(=O)c2cccs2)c(OC)c1 | 10.1
CCOc1ccc(Oc2ccc(NC(=O)[C@@H](NC(N)=O)[C@@H](C)CC)cc2)cc1 | 8.6
Cc1onc(NC(=O)c2ccc(Cl)cc2Cl)c1Br | 2.61
N#Cc1c(N)nc(-c2ccccc2)nc1-c1ccccc1 | 14.5
Cc1ccc(S(=O)(=O)NCCCCCC(=O)Nc2nccs2)cc1 | -8.3
CC(Oc1ccc(-c2nccc(-c3ccccn3)n2)cc1)C(=O)NN (stereo not drawn) | 0.813
Cc1ccc(C(=O)NNC(=S)NC(=O)c2ccco2)cc1 | 18.4
O=C(Nc1ncc2c(n1)CC(c1ccco1)CC2=O)c1ccco1 (stereo not drawn) | -13.9
O=C(COC(=O)c1n[nH]c2ccccc12)c1cccc(Br)c1 | 16.1
O=C(C1CC1)N1N=C(c2ccc(F)cc2)CC1(O)C(F)(F)F (stereo not drawn) | 5.65
COc1ccc(OCC(=O)OCC(=O)NC2CCCCC2C)cc1 (stereo not drawn) | 2.29
COc1ccc(C(=O)O)cc1S(=O)(=O)NCCCN1CCCC1=O | 15.5
NC(=O)CSCc1ccc(Br)cc1 | -3.69
COCCNc1cc(N)c([N+](=O)[O-])cc1[N+](=O)[O-] | -31.7

SMILES | hERG current change (%, negative = inhibition) at 10uM [%]
Cc1cc(C(F)(F)F)nn1C(=O)c1cccnc1Cl | -5.15
C/C=C/c1ccc(OCC(=O)OCC)c(OC)c1 | -26.9
CCCCCC1CC(COc2ccccc2)OC1=O (stereo not drawn) | 0.285
Cc1cc2c(cc1S(=O)(=O)N1CCc3ccccc31)NC(=O)CO2 | -4.79
COc1ccc(CCNC(=O)CCN2C(=O)c3ccccc3C2=O)cc1OC | -4.04
CN(C1CC(C)(C)NC(C)(C)C1)S(=O)(=O)CC12CCC(CC1=O)C2(C)C.Cl (stereo not drawn) | -7.38
CC1CC(C)CN(Cc2nc(N)nc(Nc3ccccc3)n2)C1 (stereo not drawn) | -64.8
Cc1cc2cc(CN(Cc3ccc4c(c3)OCO4)C(=O)c3ccco3)c(=O)[nH]c2cc1C | -25
CCOC(=O)/C(C#N)=C/C1=C(N2CCOCC2)CC(C)(C)OC1 | -3.59
Cc1ccc(C(=O)NCCc2c[nH]c3ccccc23)c(C)c1 | -19.3
O=[N+]([O-])c1ccc(NCCN2CCOCC2)c([N+](=O)[O-])c1 | -44.6
O=C(CN1CCCC1)Nc1ccc(NC(=O)Nc2ccccc2)cc1 | 6.42
COc1ccc(CCN2C(=O)NC(NC(C)=O)(C(F)(F)F)C2=O)cc1OC (stereo not drawn) | 7.51
COc1cccc(OC)c1C(=O)Oc1ccc2c(c1)O/C(=C\c1ccncc1)C2=O | 11
COc1ccccc1C(=O)Nc1ccc2c(c1)nc(CCNC(=O)c1ccco1)n2C | 6.59
CC(C)c1ccc(/C=N/NC(=O)c2nnn(-c3nonc3N)c2CN2CCOCC2)cc1 | -56.6
CC1=C(C(=O)OCC2CCCO2)C(c2ccccc2)NC(=O)N1 (stereo not drawn) | 6.66
CCCC(=O)N1CCN(c2ccc(NC(=O)c3ccccc3)cc2)CC1 | 1.37
COCCNC(=O)C(=O)NNC(=O)COc1ccc(OC)cc1 | 13.7

SMILES | hERG current change (%, negative = inhibition) at 10uM [%]
CC1CCCN(C(=O)C2CCN(S(=O)(=O)c3ccc4c(c3)CC(C)N4C(=O)C3CC3)CC2)C1 (stereo not drawn) | -0.0258
Cc1cccc(C)c1NC(=S)Nc1ccc(F)cc1 | 5.88
Fc1cccc(F)c1CSc1nc2ccccc2[nH]1 | -9.2
Cc1cc(/C=C(\C#N)C(=O)O)c(C)n1C1CC1 | -3.53
CCOC(=O)c1c(NC(=O)C2CCCN(S(=O)(=O)c3ccc(C)cc3)C2)sc2c1CCCC2 (stereo not drawn) | 17.9
CC1(c2nnc(-c3cccc(Cl)c3)o2)CC(c2ccc(F)cc2)=NO1 (stereo not drawn) | -8.47
O=S(=O)(c1ccc(Oc2ccc(Cl)cc2)c(S(=O)(=O)N2CCCCC2)c1)N1CCCCC1 | -10.1
Cc1cccc(-n2c(Cc3cc(=O)[nH]c(=O)[nH]3)nnc2SCC(=O)NCC2CCCO2)c1 (stereo not drawn) | 16.1
CN(CC(=O)Nc1c(F)cccc1F)Cc1cccs1 | 29.9
COc1ccccc1OCC(=O)NNC(=O)c1c(-c2ccccc2Cl)noc1C | 16.8
COc1ccc(-c2c(C#N)c(N)nc3c2CCC3)cc1 | 10.4
Cc1ccc(/C=N/NC(=O)c2cc(C3CC3)nc3ccccc23)o1 | 6.16
C[C@]12C=CC(=O)C=C1CCC1C3CC[C@](O)(C(=O)CO)[C@@]3(C)CC3OC312 (stereo partly drawn) | 11.5
Cc1cc(NC(=O)CSc2cc(Cl)ccc2Cl)n(-c2ccccc2)n1 | -20.2
COC(=O)c1ccc(C(=O)NCCCCO)cc1 | 20
CCC(=N\NC(=O)COc1ccccc1OC)/C(CC)=N/NC(=O)COc1ccccc1OC | 8.06
O=C(NCc1ccco1)c1cc(C(=O)C2CCCCC2)c[nH]1 | 15.9
CS(=O)(=O)c1cccc(C(=O)N(CCc2ccccc2)Cc2cccs2)c1 | -48.6
N#C/C(=C/C=C/c1ccccc1)C(=O)Nc1ccccc1 | 2.44
